Experimental data reported in the supplement of paper PMC6135742.
Counter-ions that a name gives are not always drawn. ± gives the standard deviation of the averaged measurements. Whole data set: some 2,600 compounds, median “MBP+ mature oligodendrocyte number relative to DMSO vehicle control” near -0.34, cut for the highest 2% near 13. This is one part of the list.

System: jimpy (Plp1 jimpy) mouse iPSC-derived oligodendrocyte progenitor cells
Assay: MBP+ mature oligodendrocyte number relative to DMSO vehicle control (SDs above negative control mean); higher = more surviving jimpy oligodendrocytes (rescue)
Details: 10 µM; 3 days
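Also: 10 µM single dose with 3-day oligodendrocyte differentiation.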

SMILES | MBP+ mature oligodendrocyte number
Cc1cccc(-c2[nH]ncc2-c2ccc3ncccc3n2)n1 | -1.19 ± 2.3
NCCCCN [Putrescine dihydrochloride] | -0.604
CN(Cc1ccc(C(C)(C)C)cc1)Cc1cccc2ccccc12 [Butenafine HCl] | 21.1
O=C(NCCCNc1nc(Nc2cccc(NC(=O)N3CCCC3)c2)ncc1I)c1cccs1 | -6.61
CCOC(=O)[C@@H](N)Cc1ccc(O)c(O)c1 [L-Dopa ethyl ester] | 0.136
O=C1Nc2ccc(I)cc2/C1=C/c1cc(Br)c(O)c(Br)c1 | 0.845 ± 0.41
O=C1N=C(O)NC1(c1ccccc1)c1ccccc1 [Phenytoin sodium] | 1.08 ± 1.6
COc1cc(NS(=O)(=O)c2ccc(N)cc2)nc(OC)n1 [Sulphadimethoxine] | 4.57
CC1(C)O[C@@H]2[C@@H](CO[C@@]3(COS(N)(=O)=O)OC(C)(C)O[C@@H]23)O1 [Topiramate] | -0.938
CN(C)c1cc(NC(=O)CNC(C)(C)C)c(O)c2c1C[C@H]1C[C@H]3[C@H](N(C)C)C(O)=C(C(N)=O)C(=O)[C@@]3(O)C(O)=C1C2=O [Tigecycline] | -0.415
COc1cc2c(cc1OC)-c1c/c(=N\c3c(C)cc(C)cc3C)n(C)c(=O)n1CC2 [Trequinsin hydrochloride] | 0.789
Cc1cccc(Nc2ccncc2S(=O)(=O)NC(=O)NC(C)C)c1 [Torsemide] | 2.14
CSc1c(C)c(SC)n2ccncc12 [Oltipraz metabolite M2] | -2.35
O=C(c1ccc(F)cc1)N1CCC[C@H](c2nc(-c3ccc(F)cc3)no2)C1 | 2.72
Cc1ccc(Cl)cc1N(CC(=O)Nc1c(F)cccc1F)S(C)(=O)=O | 0.933
NC(=O)N1c2ccccc2CC(=O)c2ccccc21 [Oxcarbazepine] | 1.59
NC1=NCC2c3ccccc3Cc3ccccc3N12 (stereo unspecified) [Epinastine hydrochloride] | -1.17
NC1=NCC2c3ccccc3Cc3ccccc3N12 (stereo unspecified) [Epinastine HCl] | 5.9
Oc1nc(-c2ccc(C(F)(F)F)cc2)nc2c1CSCC2 | -3.38
CC(C)Cn1cnc2c(N)nc3ccccc3c21 [Imiquimod] | -0.0654
CN(C)c1ccc(-c2nc3ncc(Cl)c(N4CCN(CC(=O)Nc5nccs5)CC4)c3[nH]2)cc1 | -2.99
C[C@H](CCC(=O)NCCS(=O)(=O)O)[C@H]1CC[C@H]2[C@@H]3[C@H](O)C[C@@H]4C[C@H](O)CC[C@]4(C)[C@H]3C[C@H](O)[C@]12C [Sodium Taurocholate hydrate] | -0.433
Nc1ccccc1NC(=O)c1ccc(CNc2nccc(-c3cccnc3)n2)cc1 [Mocetinostat (MGCD0103)] | < -6.7
CN1CC(=O)N=C1NC(=O)Nc1cccc(Cl)c1 [Fenobam] | -0.794
CC[C@H](C)C(=O)O[C@H]1C[C@H](O)C=C2C=C[C@H](C)[C@H](CC[C@@H](O)C[C@@H](O)CC(=O)O)[C@H]21 [Pravastatin sodium] | -2.83
CCCc1c(OCCCOc2ccc(OCC(=O)O)cc2)ccc(C(C)=O)c1O | -0.439

SMILES | MBP+ mature oligodendrocyte number
CC1=C(C(=O)O)N2C(=O)[C@@H](NC(=O)[C@H](N)c3ccccc3)[C@H]2SC1 [Cephalexin hydrate] | 0.549
CC1=C(C(=O)O)N2C(=O)[C@@H](NC(=O)[C@H](N)c3ccccc3)[C@H]2SC1 [Cephalexin] | -1.55
Cc1nccn1CC1CCc2c(c3ccccc3n2C)C1=O (stereo unspecified) [Ondansetron HCl] | 12.8
CC(=O)NC[C@H]1CN(c2ccc(N3CCOCC3)c(F)c2)C(=O)O1 [Linezolid] | 1.72 ± 2.5
O=c1c2ccccc2[nH]c(=S)n1CCN1CCC(=C(c2ccc(F)cc2)c2ccc(F)cc2)CC1 [Diacylglycerol Kinase Inhibitor II] | 2.18
COc1ccc2c(c1)c(CC(=O)OCC(=O)O)c(C)n2C(=O)c1ccc(Cl)cc1 [Acemetacin] | -3.19
COc1cc2c(cc1Cc1cccc(Cl)c1F)c(=O)c(C(=O)O)cn2[C@H](CO)C(C)C [Elvitegravir (GS-9137, JTK-303)] | -2.9
COc1ccc2cc3[n+](cc2c1OC)CCc1cc2c(cc1-3)OCO2 [Berberine HCl] | < -4.81
CC[C@@]1(O)C(=O)OCc2c1cc1n(c2=O)Cc2cc3c(CN(C)C)c(O)ccc3nc2-1 [Topotecan HCl] | < -6.7
CC[C@@]1(O)C(=O)OCc2c1cc1n(c2=O)Cc2cc3c(CN(C)C)c(O)ccc3nc2-1 [Topotecan hydrochloride hydrate] | -3.89
Nc1nnc(-c2cccc(Cl)c2Cl)c(N)n1 [Lamotrigine] | -0.484 ± 0.38
Cc1cc(Nc2cc(CN3CCOCC3)c3nc(C)c(Cc4ccc(Cl)cc4F)n3n2)n[nH]1 | < -4.81
Nc1nc(=O)[nH]cc1F [Flucytosine] | 1.78
CCN1CCN(c2ccc(Nc3cc(N(C)C(=O)Nc4c(Cl)c(OC)cc(OC)c4Cl)ncn3)cc2)CC1 | 0.451
Oc1cc(O)cc(/C=C/c2ccc(O)c(O)c2)c1 [Piceatannol] | -4.95 ± 1.5
Cc1cccc(C2CN(C)CCc3c2cc(O)c(O)c3Cl)c1 (stereo unspecified) | 1.5
CC(=O)O[C@]1(C(C)=O)CC[C@H]2[C@@H]3C=C(C)C4=CC(=O)CC[C@]4(C)[C@H]3CC[C@@]21C [Megestrol Acetate] | 15.4
C=C1[C@H](CO)[C@@H](O)C[C@@H]1n1cnc2c(=O)[nH]c(N)nc21 [Entecavir Hydrate] | -0.415
CN(C)C(=O)c1cc2cnc(Nc3ccc(N4CCNCC4)cn3)nc2n1C1CCCC1 | 11.4
CCCC(=O)Nc1cccc(NC(=O)c2ccccc2Br)c1 | 2.72
COc1cc2ncnc(Nc3ccc(O)c(Br)c3)c2cc1OC | -4.02
COc1cc(-c2cc(-c3cccc(O)c3)cnc2N)cc(OC)c1OC | -6.01
N[C@@H](CC(=O)N1CCn2c(nnc2C(F)(F)F)C1)Cc1cc(F)c(F)cc1F [Sitagliptin phosphate monohydrate] | 0.184
Cn1cc(C2=C(c3cn(CCCSC(=N)N)c4ccccc34)C(=O)NC2=O)c2ccccc21 [Ro 31-8220 Mesylate] | -5.25
C[C@@H]1O[C@@H](O[C@H]2[C@H](Oc3cc(O)c4c(c3)O[C@H](c3ccc(O)cc3)CC4=O)O[C@H](CO)[C@@H](O)[C@@H]2O)[C@H](O)[C@H](O)[C@H]1O [Naringin] | -0.5
